This note sets out measurements from the supplement of paper PMC9174493.

Some of the results follow. Single values of this set are uncertain. Values with irradiation are relative to irradiated vehicle.

The subject of assay [1] is A549-Dual. Nature of the assay: NF-kB reporter (SEAP) activity, viability-corrected, relative to vehicle (fold change vs vehicle); higher = more activation of STING-IRF / NF-kB immune response reporter. The following applies: 10 µM.
The test system of assay [2] is A549-Dual. Nature of the assay: ISRE reporter (Lucia luciferase) activity, viability-corrected, relative to vehicle (fold change vs vehicle); higher = more activation of STING-IRF / NF-kB immune response reporter. To be noted: 10 µM.
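Throughout, for NF-kB reporter (SEAP) activity, viability-corrected, relative to vehicle: viability correction based on the alamar blue assay, with concentrations leaving 10% survival or less dropped.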

With `CCn1cc(C(=O)O)c(=O)c2cnc(N3CCNCC3)nc21` [Pipemidic acid], the NF-kB reporter turned out to be 0.871 in the assay with A549-Dual [1] (irradiation: 8 Gy/4 fr) and 1.09 with A549-Dual [1] (irradiation: none). In addition, the ISRE reporter was determined as 0.746 in the assay on A549-Dual [2] (irradiation: 8 Gy/4 fr) and 0.975 with A549-Dual [2] (irradiation: none).
The matching figures for `CCCCCCCCCCCCOC(=O)CS(=O)(=O)[O-].[Na+]` [Sodium Houttuyfonate]: 0.82, 0.819, 0.826 and 0.812.
Turning to `CC12CCC(C1)C(C)(C)C2=O` (single isomer, unassigned; (-)) [(-)-Fenchone], the NF-kB reporter in the assay on A549-Dual [1] (irradiation: 8 Gy/4 fr) was 0.622; with A549-Dual [1] (irradiation: none), 0.486. Besides, the ISRE reporter in the assay with A549-Dual [2] (irradiation: 8 Gy/4 fr) turned out to be 0.612; in the assay with A549-Dual [2] (irradiation: none), 0.525.
`CC(=O)NCC(=O)O.CC(=O)NCC(=O)O.N=C(N)c1ccc(N=NNc2ccc(C(=N)N)cc2)cc1` [Diminazene Aceturate]: the NF-kB reporter worked out at 0.543 in the assay on A549-Dual [1] (irradiation: 8 Gy/4 fr) and 0.727 in the assay with A549-Dual [1] (irradiation: none). In addition, the values for the ISRE reporter in the assay with A549-Dual [2] (irradiation: 8 Gy/4 fr) and in the assay with A549-Dual [2] (irradiation: none) were 0.661 and 1.37, respectively.
The matching figures for `Cc1ncc([N+](=O)[O-])n1CC(O)CCl` (stereo not drawn) [Ornidazole]: 0.855, 0.954, 0.862 and 0.808.
Take `CC(=O)OCC(=O)C1CCC2C3CCC4=CC(=O)CCC4(C)C3CCC12C` (stereo not drawn) [Deoxycorticosterone acetate]: the NF-kB reporter in the assay with A549-Dual [1] (irradiation: 8 Gy/4 fr) came out at 0.526; in the assay on A549-Dual [1] (irradiation: none), 0.841. In addition, the ISRE reporter in the assay on A549-Dual [2] (irradiation: 8 Gy/4 fr) stood at 0.252; in the assay on A549-Dual [2] (irradiation: none), 0.492.
The matching figures for `CN1CCN(CCCN2c3ccccc3Sc3ccc(Cl)cc32)CC1.O=C(O)/C=C\C(=O)O.O=C(O)/C=C\C(=O)O` [Prochlorperazine dimaleate salt]: 0.516, 1.31, 0.339 and 1.13.
Consider `Clc1ccc(COC(Cn2ccnc2)c2ccc(Cl)cc2Cl)cc1.O=[N+]([O-])O` (stereo not drawn) [Econazole nitrate], for which the NF-kB reporter in the assay on A549-Dual [1] (irradiation: 8 Gy/4 fr) was found to be 0.408; in the assay on A549-Dual [1] (irradiation: none), 0.57. Moreover, the ISRE reporter in the assay on A549-Dual [2] (irradiation: 8 Gy/4 fr) turned out to be 0.333; in the assay with A549-Dual [2] (irradiation: none) it was 0.523.
Taken in the same sequence, the figures for `CCOC(=O)N1c2ccc(C(F)(F)F)cc2C(N(Cc2cc(C(F)(F)F)cc(C(F)(F)F)c2)C(=O)OC)CC1CC` (stereo not drawn) [Torcetrapib] were 0.669, 1.18, 0.552 and 0.765.
Turning to `O.O.OCC1OC(OC2OC(CO)C(O)C(O)C2O)C(O)C(O)C1O` [D-(+)-Trehalose dihydrate], the values for the NF-kB reporter with A549-Dual [1] (irradiation: 8 Gy/4 fr) and in the assay with A549-Dual [1] (irradiation: none) were 1.12 and 0.76, respectively. The figures for the ISRE reporter in the assay on A549-Dual [2] (irradiation: 8 Gy/4 fr) and in the assay on A549-Dual [2] (irradiation: none) were 0.902 and 0.614, respectively.
As for `CNCC(O)c1ccc(O)c(O)c1` [L-Adrenaline], the NF-kB reporter in the assay with A549-Dual [1] (irradiation: 8 Gy/4 fr) is 1.03; in the assay on A549-Dual [1] (irradiation: none), 1.17. Moreover, the ISRE reporter is 0.987 with A549-Dual [2] (irradiation: 8 Gy/4 fr) and 0.896 in the assay on A549-Dual [2] (irradiation: none).
For `CCC(NC(C)C)C(O)c1ccc(O)c(O)c1.CS(=O)(=O)O` (stereo not drawn) [Isoetharine Mesylate], the NF-kB reporter with A549-Dual [1] (irradiation: 8 Gy/4 fr) was determined as 1.59; with A549-Dual [1] (irradiation: none), 1.03. Besides, the figures for the ISRE reporter with A549-Dual [2] (irradiation: 8 Gy/4 fr) and in the assay with A549-Dual [2] (irradiation: none) were 0.371 and 0.52, respectively.
As to `O=C(O)CCC(=O)Nc1ccc(S(=O)(=O)Nc2nccs2)cc1` [Succinylsulfathiazole], the NF-kB reporter amounted to 0.935 in the assay with A549-Dual [1] (irradiation: 8 Gy/4 fr) and 0.883 with A549-Dual [1] (irradiation: none). Moreover, the ISRE reporter in the assay with A549-Dual [2] (irradiation: 8 Gy/4 fr) was determined as 0.769; with A549-Dual [2] (irradiation: none), 0.651.
For `O=c1ccc2ccc(OCCCCN3CCN(c4cccc5sccc45)CC3)cc2[nH]1` [Brexpiprazole], the NF-kB reporter was 0.599 in the assay on A549-Dual [1] (irradiation: 8 Gy/4 fr) and 0.98 with A549-Dual [1] (irradiation: none). Also, the ISRE reporter in the assay on A549-Dual [2] (irradiation: 8 Gy/4 fr) was determined as 0.591; in the assay with A549-Dual [2] (irradiation: none), 0.931.
Taken in the same sequence, the figures for `OCC(O)C(O)C(OC1OC(CO)C(O)C(O)C1O)C(O)CO` (stereo not drawn) [Lactitol] were 0.744, 0.926, 0.705 and 0.668.
As for `NCC1OC(OC2C(CO)OC(OC3C(O)C(N)CC(N)C3OC3OC(CO)C(O)C(O)C3N)C2O)C(N)C(O)C1O.O=S(=O)(O)O` (stereo not drawn) [Paromomycin Sulfate], the NF-kB reporter worked out at 0.762 in the assay on A549-Dual [1] (irradiation: 8 Gy/4 fr) and 0.92 in the assay on A549-Dual [1] (irradiation: none). The figures for the ISRE reporter in the assay with A549-Dual [2] (irradiation: 8 Gy/4 fr) and with A549-Dual [2] (irradiation: none) were 0.796 and 0.933, respectively.
Taken in the same sequence, the figures for `COc1cc(C(=O)O)ccc1O` [Vanillic acid] were 0.878, 0.63, 0.925 and 0.721.
`CC(N)C12CC3CC(CC(C3)C1)C2` (stereo not drawn) [Rimantadine]: the NF-kB reporter was determined as 0.953 in the assay on A549-Dual [1] (irradiation: 8 Gy/4 fr) and 1.03 in the assay on A549-Dual [1] (irradiation: none). Moreover, the ISRE reporter in the assay with A549-Dual [2] (irradiation: 8 Gy/4 fr) worked out at 1.13; in the assay with A549-Dual [2] (irradiation: none), 0.97.
For `CC12CCC3c4ccc(OC(=O)c5ccccc5)cc4CCC3C1CCC2O` (stereo not drawn) [Estradiol Benzoate], the values for the NF-kB reporter in the assay on A549-Dual [1] (irradiation: 8 Gy/4 fr) and in the assay on A549-Dual [1] (irradiation: none) were 0.703 and 1.38, respectively. The values for the ISRE reporter in the assay on A549-Dual [2] (irradiation: 8 Gy/4 fr) and in the assay with A549-Dual [2] (irradiation: none) were 0.522 and 0.9, respectively.
Taken in the same sequence, the figures for `CC(c1ncncc1F)C(O)(Cn1cncn1)c1ccc(F)cc1F` (stereo not drawn) [Voriconazole] were 0.688, 0.912, 0.711 and 0.652.
Taken in the same sequence, the figures for `O=C1c2cccc3c2C(CCC3)CN1C1CN2CCC1CC2` (stereo not drawn) [Palonosetron] were 0.8, 1.35, 0.952 and 1.08.
Consider `C=CC(=O)N1CCCC(n2nc(-c3ccc(Oc4ccccc4)cc3)c3c(N)ncnc32)C1` (stereo not drawn), for which the NF-kB reporter in the assay on A549-Dual [1] (irradiation: 8 Gy/4 fr) turned out to be 1.25; in the assay with A549-Dual [1] (irradiation: none), 1.4. In addition, the ISRE reporter with A549-Dual [2] (irradiation: 8 Gy/4 fr) was 0.767; in the assay on A549-Dual [2] (irradiation: none), 1.26.
The matching figures for `O=c1ccn(C2CC(O)C(CO)O2)c(=O)[nH]1` (stereo not drawn) [2’-deoxyuridine]: 0.855, 0.829, 0.967 and 0.66.
Taken in the same sequence, the figures for `COc1ccc(NC(=O)c2ccc(C(=N)N(C)C)cc2)c(C(=O)Nc2ccc(Cl)cn2)c1` [Betrixaban] were 0.949, 0.717, 1.11 and 0.729.
The matching figures for `C#CC1(O)CCC2C3CCC4=CC(=O)CCC4C3CCC21CC` (stereo not drawn) [Norgestrel]: 0.626, 0.607, 0.451 and 0.441.
Take `O=C(O)c1ccc(NC(=O)C(Cc2ccc(O)cc2)NC(=O)c2ccccc2)cc1` (stereo not drawn) [Bentiromide]: the NF-kB reporter came out at 0.778 in the assay on A549-Dual [1] (irradiation: 8 Gy/4 fr) and 0.523 in the assay with A549-Dual [1] (irradiation: none). Also, the ISRE reporter is 0.607 with A549-Dual [2] (irradiation: 8 Gy/4 fr) and 0.515 in the assay on A549-Dual [2] (irradiation: none).
The matching figures for `COCCc1ccc(OCC(O)CNC(C)C)cc1` (stereo not drawn) [Metoprolol]: 0.937, 0.958, 0.915 and 0.917.
